The data set has as its system ATP. In words: switch fluorescence ratio, 500 uM ATP over buffer (Cy3 cluster intensity, sum of 5 cycles each) (fold (ratio)); higher = stronger signal-on switching upon ATP binding; sequences stand for … in TCGTCGGCAGCGTCAGATGTGTATAAGAGACAGTTTTTTTTTTTTTTTTTTTTTTTTT…TC. To be noted: aptamer strand: ATP DNA aptamer (quencher-CACCTGGGGGAGTATTGCGGAGGAAGG + anchor), 100 nM annealed; ATP concentration: 500 uM; one replicate. The method in brief:
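Values give the fluorescence ratio for each switch-domain sequence, averaged from per-cluster ratios of summed target-cycle to summed buffer-cycle Cy3 intensity. The Cy3-labelled switching-strand clusters sat on a modified Illumina MiSeq flow-cell, were annealed to 100 nM quencher-labelled ATP aptamer, and were imaged in selection buffer, then after 15 min with 500 uM ATP at 22 °C. Five cycles ran with NaOH stripping and re-annealing between them, and clusters outside 100-1000 RFU were excluded.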

Values marked as one replicate rest on one cluster of the flow cell; about a third of the high ones do not repeat.
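Further: ATP exposure 15 min at 22 °C before imaging.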

Regarding AGTCCTACAT, the switch fluorescence ratio amounted to 1.01.
As for TAAAGTCCGC, the switch fluorescence ratio was 1.15.
In the case of TTAGATAATT, the switch fluorescence ratio worked out at 0.968.
Take GATTACACGG: the switch fluorescence ratio was 1.06.
TAATATCTGT: the switch fluorescence ratio was 1.01.
As for CTGTACGTGC, the switch fluorescence ratio amounted to 1.08.
In the case of CACAGAATGC, the switch fluorescence ratio stood at 1.08.
Regarding GGGCTTCGTG, the switch fluorescence ratio is 0.993.
GTTCTCAGTT: the switch fluorescence ratio was 0.957.
To ATCCTGAGAA belongs 0.964; to CCTAGAGTTT, 0.958; to GGGTGGATGC, 1.
As for CTAACAGTTG, the switch fluorescence ratio came out at 0.988.
Regarding GCTGGAGTGC, the switch fluorescence ratio was found to be 1.1.
Take ATTCACCTAT: the switch fluorescence ratio was 1.08.
Turning to CCCCTCCCTT, the switch fluorescence ratio is 1.11.
To GGGACCTTTA belongs 1.03; to TAGCATTACT, 4.7.
For TAGACCTAGA, the switch fluorescence ratio turned out to be 0.977.
Regarding ATAACGCCTT, the switch fluorescence ratio came out at 1.07.
For TTTTCGGCGG, the switch fluorescence ratio stood at 1.02.
As to AGATCTGAAC, the switch fluorescence ratio came out at 0.974.
To CGAGGCCCAG belongs 1.03.
For the sequence GGGACGTTCT, the switch fluorescence ratio came out at 1.01.
Turning to ATCCGATTCG, the switch fluorescence ratio came to 0.973.
Consider GATTCGTAGG, for which the switch fluorescence ratio stood at 0.986.
For the sequence CCCCAAGCGA, the switch fluorescence ratio was 4.6.

The values are drawn from the supplement of paper PMC10126150.
